Source: PubChem BioAssay AID1963865 (Molecular Pharmacology Branch, DTP, NCI, 2024)
For part of its entries the source gives two or more results. They are shown here; other results are not. An entry can have further records. Values given together are repeats (runs, samples, wells, individuals or studies). Signs of the kind (2×) give the number of equal values in this list. A date in brackets names the month of the test.

System: KRAS PDC multicell spheroid viability
Test: Anticancer human tumor 825966-067-R-J1-PDC patient-derived colon carcinoma cell line growth inhibition [KRAS2]
Conditions: for viability, T/C: stronger effect = lower value; for IC50: compound alone
Description: Multicellular complex tumor spheroid response to RAS pathway inhibitors in combination with a targeted agents in patient-derived cell lines with oncogenic KRAS variants from multiple cancer types
A high-throughput screen of multi-cell type tumor spheroids was designed to identify active combinations of targeted small molecules and KRAS pathway inhibitors. Complex spheroids include a stromal component modeled by human endothelial cells (HUVEC) and fibroblasts modeled by human mesenchymal stem cells (MSCs). The concentration ranges selected for each drug and investigational agent were based upon clinically achievable concentrations if the clinical Cmax of the agent was known.
Compounds. The drugs and investigational agents: BI-3406 (NSC825286), BAY-293 (NSC824723), batoprotafib (TNO155; NSC825523), sotorasib (AMG 510; NSC818433), MRTX1257 (NSC819558), elimusertib (BAY 1895344; NSC800525), molibresib (GSK525762; NSC774829), temuterkib (LY3214996; NSC803410), venetoclax (NSC766270), alisertib (NSC759677), olaparib (NSC753686), talazoparib (NSC767125), erdafitinib (NSC781556), ipatasertib (NSC767898), cabozantinib (NSC761068), nintedanib (NSC756659), abemaciclib (NSC768073), docetaxel (NSC628503), trametinib (NSC758246), and sapanisertib (NSC764658) were obtained from the National Cancer Institute (NCI) Developmental Therapeutics Program Chemical Repository. The FDA-approved anticancer drug set is available from the Developmental Therapeutics Program. […] The stock solutions were prepared in dimethyl sulfoxide (DMSO, Sigma-Aldrich, St. Louis, MO, cat. D2650) at 800-fold the tested concentration and stored at -70 degrees C prior to their use. All drugs and investigational agents were tested over a range starting from a high concentration at or near the clinical Cmax and decreasing in half-log increments. If the clinical Cmax for an agent had not been determined, the highest concentration tested was 10 microM.
Cell Culture. All cells were maintained in an incubator at 37 degrees C and 5% CO2 with 95% humidity. The PDC lines were cultured according to standard operating procedures established by the NCI PDMR (https://pdmr.cancer.gov/sops/default.htm). Briefly, all PDCs were thawed and cultured in Matrigel-coated flasks prepared with a working solution of 1X Ham's F-12 nutrient mix, without supplementation (Invitrogen, Waltham, MA, cat. 11765054), 100 U/mL penicillin-streptomycin (Invitrogen, cat. 15140122), and 2.5% Matrigel (Corning Inc., Corning, NY, cat. 354248) for the first three passages. All PDCs were cultured in complete DMEM/F-12 media containing advanced DMEM/F-12 (Invitrogen, cat. 12634028), 4.9% defined fetal bovine serum, heat inactivated (HyClone Laboratories Inc., Logan, UT, cat. SH30070.03HI), 389 ng/mL hydrocortisone (Sigma-Aldrich, cat. H4001), 9.7 ng/mL human EGF recombinant protein (Invitrogen, cat. PHG0313), 23.4 microg/mL adenine (Sigma-Aldrich, cat. A2786), 97.3 U/mL penicillin-streptomycin (Invitrogen, cat. 15140122), 1.9 mM L-glutamine (Invitrogen, cat. 25030081), and 9.7 microM Y-27632 dihydrochloride (Tocris Bioscience, Bristol, United Kingdom, cat. 1254). The PDCs were cultured in complete DMEM/F12 media without 9.7 microM Y-27632 dihydrochloride for at least two passages prior to the screen. The established cell line HOP-62 was cultured in RPMI 1640 medium, HEPES (Invitrogen, cat. 22400105) with 10% defined fetal bovine serum (HyClone Laboratories Inc., cat. SH30070.03) and 2 mM L-glutamine (Invitrogen, cat. 25030081). The pooled donor HUVEC were cultured in endothelial cell growth medium 2 (PromoCell, Heidelberg, Germany, cat. C-22011) and the hMSC were cultured in mesenchymal stem cell growth medium 2 (PromoCell, cat. C-28009). For all experiments, HUVEC and hMSC were used at passages </=5, while the malignant cell lines were used at passages </=15. […]
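Further: spheroids exposed to compounds for 7 days.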
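Wherever viability, T/C is given: 100% = DMSO vehicle control viability.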

Row | Structure (SMILES) | viability, T/C (compound alone 0.1 µM) | viability, T/C (compound alone 0.0316 µM) | viability, T/C (compound alone 1 µM) | viability, T/C (compound alone 0.316 µM) | also measured
1 | COc1cc2nccc(Oc3ccc(NC(=O)C4(C(=O)Nc5ccc(F)cc5)CC4)cc3)c2cc1OC | 73.5, 104, 101, 93.7, 92.9% |  |  |  | 
2 | COc1cc(OC)cc(N(CCNC(C)C)c2ccc3ncc(-c4cnn(C)c4)nc3c2)c1 |  |  |  |  | IC50: 6.16 µM, 7.24 µM, > 10 µM, 5.43 µM, 6.29 µM; viability, T/C (compound alone 3.16 µM): 157, 109, 113, 112, 138%; viability, T/C (compound alone 10 µM): 5.04, 32.3, 52, 3.85, 17.3%
3 | Cn1ncnc1[C@H]1c2n[nH]c(=O)c3cc(F)cc(c23)N[C@@H]1c1ccc(F)cc1 | 85.6, 67.2, 54.4, 95.5, 64.9% | 86.4, 74.4, 56, 90.7, 65.1% |  |  | viability, T/C (compound alone 0.000316 µM): 76.9, 110, 87.5, 111, 74.8%; viability, T/C (compound alone 0.001 µM): 78.1, 106, 103, 71.9, 109%; viability, T/C (compound alone 0.00316 µM): 87.2, 85.4, 61.2, 89, 94.9%
4 | CC1(C)CCC(CN2CCN(c3ccc(C(=O)NS(=O)(=O)c4ccc(NCC5CCOCC5)c([N+](=O)[O-])c4)c(Oc4cnc5[nH]ccc5c4)c3)CC2)=C(c2ccc(Cl)cc2)C1 |  | 89.8, 99.9, 87.5, 77.8, 104% | 91.1, 82.9, 82.4, 96.2, 108% |  | 
5 | CC(C)n1nc(-c2ccc3oc(N)nc3c2)c2c(N)ncnc21 | 131, 121, 161, 133, 153% | 118, 137, 141, 126, 145% |  |  | viability, T/C (compound alone 0.000316 µM): 111, 109, 140, 107, 98.6%; viability, T/C (compound alone 0.001 µM): 120, 93.7, 134, 108, 121%; viability, T/C (compound alone 0.01 µM): 134 (2×), 142, 112, 149%
6 | COc1cc2nc(C)nc(NC(C)c3cc(N)cc(C(F)(F)F)c3)c2cc1OC1CCOC1 (stereo unspecified) | 90.7, 95.7, 75.8, 110, 81.5, 91.5, 93.5, 84.4, 97.2, 82.6, 89.8% [2021-08] and 87.2, 79.3, 103, 95.7, 84.6, 92% [2021-09] |  | 94.2, 94.5, 92.7, 78.3, 84.8, 117, 89.1, 82.2, 101, 89.9, 96.5% [2021-08] and 99.2, 99.3, 104, 60.5, 97.8, 96% [2021-09] | 106, 101 (2×), 79.3, 95.7, 69.1, 81.5, 111, 76.3, 88, 92.4% [2021-08] and 102, 96.8, 105, 89.6, 89.7, 96.3% [2021-09] | viability, T/C (compound alone 3.16 µM): 112, 104, 111, 95.6, 97.8, 94.6, 90.9, 72.3, 121, 102, 99% [2021-08] and 131, 112 (3×), 96.1, 98.4% [2021-09]; viability, T/C (compound alone 10 µM): 71.5, 109, 107, 6.7, 8.95, 1.37, 17.1, 14.1, 36.2, 7.67, 10.4% [2021-08] and 69.4, 51.9, 86.3, 113, 35, 66.1% [2021-09]; IC50 (run of 08/19/2021): > 10 µM, 5.65 µM, 5.3 µM, 5.49 µM
7 | COc1cc(Nc2ncc3c(n2)-c2ccc(Cl)cc2C(c2c(F)cccc2OC)=NC3)ccc1C(=O)O |  | 90.2, 134, 123, 129, 105% |  | 102, 138, 125, 95, 111% | 
8 | CC1OCC2(CCN(c3cnc(Sc4ccnc(N)c4Cl)c(N)n3)CC2)C1N (stereo unspecified) |  |  | 88.8, 108, 73.4, 91.8, 85.8, 84.3, 117, 83.8, 99.9, 95.2, 83.3% [2021-08] and 79, 94.7, 81.1, 89.6, 85.8, 102, 103, 85% [2021-09] | 91, 85.8, 86.5, 82.5, 86.2, 95.8, 102, 90.9, 94.6, 95.2, 75% [2021-08] and 83.8, 89.2, 81.5, 88.7, 84.7, 97.7, 93.2, 87.8% [2021-09] | viability, T/C (compound alone 3.16 µM): 90.3, 92.3, 80.7, 98.1, 94.8, 105, 83.2, 99.9, 127, 93.4, 78.6% [2021-08] and 103, 98.8, 93, 89, 99.1, 96.4, 115, 89.4, 88.7% [2021-09]; viability, T/C (compound alone 10 µM): 84.7, 85, 99.7, 54.2, 78.7, 47, 27.4, 49.6, 47.3, 37.1, 40.6% [2021-08] and 47.6, 44.4, 72.4, 66.8, 81.7, 99.7, 94.9, 41.9, 68.9% [2021-09]
9 | Cn1nccc1Nc1nccc(-c2cc3c(s2)C(C)(C)N(CCN2CCOCC2)C3=O)n1 |  |  | 114, 110, 119, 123, 97.6% |  | 
10 | CCN1CCN(Cc2ccc(Nc3ncc(F)c(-c4cc(F)c5nc(C)n(C(C)C)c5c4)n3)nc2)CC1 |  | 114, 86.9, 115, 99.5, 80.1% | 101, 158, 170, 142, 165% |  | 
11 | CC1COCCN1c1cc(-c2ccnn2C)c2ccnc(-c3ccn[nH]3)c2n1 (stereo unspecified) | 91.7, 59.1, 51.9, 85.7, 68.9% | 135, 124, 111, 107, 97.1% | 59.4, 38.1, 66.6, 46.1, 82.4% | 70.7, 38, 64.3, 77.3, 65% | IC50: 215 nM, 3.16 µM, > 3.16 µM
